Consider five molecules from article PMC6466672.

Test [1] concerns the target T1, Swi1 fused to Gal4 DNA-binding domain (S. pombe) (UniProt Q9UUM2).
T1 sequence: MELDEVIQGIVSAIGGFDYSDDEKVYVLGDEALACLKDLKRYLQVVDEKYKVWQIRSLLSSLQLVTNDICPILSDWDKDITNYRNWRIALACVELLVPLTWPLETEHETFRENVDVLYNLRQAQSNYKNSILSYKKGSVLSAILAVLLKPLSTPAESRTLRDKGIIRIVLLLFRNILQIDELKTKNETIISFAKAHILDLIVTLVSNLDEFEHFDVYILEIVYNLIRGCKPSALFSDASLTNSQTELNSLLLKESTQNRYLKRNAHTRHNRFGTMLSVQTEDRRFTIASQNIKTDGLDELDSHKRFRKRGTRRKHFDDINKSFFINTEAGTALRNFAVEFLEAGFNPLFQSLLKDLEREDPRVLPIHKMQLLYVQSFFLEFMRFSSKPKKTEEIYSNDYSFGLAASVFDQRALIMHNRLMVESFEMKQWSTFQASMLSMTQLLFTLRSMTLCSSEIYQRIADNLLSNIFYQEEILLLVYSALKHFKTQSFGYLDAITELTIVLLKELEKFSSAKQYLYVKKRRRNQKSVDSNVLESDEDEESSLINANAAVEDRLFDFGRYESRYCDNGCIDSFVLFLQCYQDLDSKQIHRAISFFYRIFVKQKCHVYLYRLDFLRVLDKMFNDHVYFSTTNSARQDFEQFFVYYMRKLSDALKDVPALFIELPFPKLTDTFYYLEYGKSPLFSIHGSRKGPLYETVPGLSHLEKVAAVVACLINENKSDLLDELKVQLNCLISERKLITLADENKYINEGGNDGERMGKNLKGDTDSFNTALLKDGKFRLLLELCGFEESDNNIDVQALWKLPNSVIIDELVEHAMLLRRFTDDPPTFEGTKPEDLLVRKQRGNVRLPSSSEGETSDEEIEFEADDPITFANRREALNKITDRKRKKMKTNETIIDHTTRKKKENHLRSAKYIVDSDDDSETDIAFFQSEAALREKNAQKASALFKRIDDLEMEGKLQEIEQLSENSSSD
Put plainly: two-hybrid; S. cerevisiae Y190 reporter strain; Gal4-DBD (pAS404) and Gal4-AD (pGAD424) fusions; growth in the presence of 3-aminotriazole (25 mM in the screen).

Test [2] addresses T2, Swi1 expressed as epitope-tagged protein in S. pombe cells (S. pombe) (UniProt Q9UUM2).
T2 sequence: T1 sequence
Put plainly: co-IP; immunoprecipitation of Vid21 and Swi1 expressed as epitope-tagged proteins in S. pombe cells; no data shown.

The target in another test is T3, GST-Swi1 (S. pombe) (UniProt Q9UUM2).
T3 sequence: T1 sequence
In words: pull-down; Glutathione Sepharose 4B beads bound to GST fusions mixed with His6-Vid21CT in buffer A (50 mM Tris-HCl pH 8.0, 150 mM NaCl, 0.1% NP-40, 10% glycerol, 5 mM EDTA), 1 h at 4 °C; washed three times with buffer A and once with 500 mM NaCl; Western blot with anti-GST and anti-hexahistidine; both …. Background: A western blot detects proteins with antibodies after separation by electrophoresis.

For another test, the target named is T4, GST-Swi3 (S. pombe) (UniProt O14350).
T4 sequence: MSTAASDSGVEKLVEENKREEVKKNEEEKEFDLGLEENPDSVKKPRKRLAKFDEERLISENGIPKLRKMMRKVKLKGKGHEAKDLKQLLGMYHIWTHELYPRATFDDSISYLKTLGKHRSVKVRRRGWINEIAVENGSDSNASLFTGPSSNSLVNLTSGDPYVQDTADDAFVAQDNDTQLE
Described as above.

The target in the next test is T5, Vid21-13Myc (S. pombe) (UniProt O59773).
T5 sequence: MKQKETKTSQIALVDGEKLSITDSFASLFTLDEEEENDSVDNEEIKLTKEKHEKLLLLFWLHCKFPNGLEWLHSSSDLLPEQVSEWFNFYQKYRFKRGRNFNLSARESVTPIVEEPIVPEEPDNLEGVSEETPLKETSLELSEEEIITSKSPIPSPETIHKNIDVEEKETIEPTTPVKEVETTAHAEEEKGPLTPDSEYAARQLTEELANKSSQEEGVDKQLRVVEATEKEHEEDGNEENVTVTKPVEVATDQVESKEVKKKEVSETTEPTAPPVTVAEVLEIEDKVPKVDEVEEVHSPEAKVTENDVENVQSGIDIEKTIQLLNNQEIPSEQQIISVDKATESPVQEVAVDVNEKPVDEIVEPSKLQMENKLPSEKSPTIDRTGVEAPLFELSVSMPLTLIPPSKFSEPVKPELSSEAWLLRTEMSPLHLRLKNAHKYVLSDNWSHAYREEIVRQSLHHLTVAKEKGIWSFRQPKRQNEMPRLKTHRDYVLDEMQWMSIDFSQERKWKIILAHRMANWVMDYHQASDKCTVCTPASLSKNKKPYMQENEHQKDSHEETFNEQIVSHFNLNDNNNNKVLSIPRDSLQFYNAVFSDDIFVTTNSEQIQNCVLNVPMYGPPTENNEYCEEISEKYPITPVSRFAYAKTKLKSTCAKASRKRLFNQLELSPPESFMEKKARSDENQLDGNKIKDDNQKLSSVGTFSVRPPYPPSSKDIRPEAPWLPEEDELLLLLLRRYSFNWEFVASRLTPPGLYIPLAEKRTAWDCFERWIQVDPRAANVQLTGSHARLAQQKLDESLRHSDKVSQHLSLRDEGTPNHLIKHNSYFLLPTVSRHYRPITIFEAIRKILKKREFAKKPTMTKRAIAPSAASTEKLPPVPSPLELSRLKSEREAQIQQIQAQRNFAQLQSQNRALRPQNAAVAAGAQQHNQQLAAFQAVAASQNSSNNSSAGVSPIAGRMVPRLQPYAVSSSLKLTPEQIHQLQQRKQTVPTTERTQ
Put plainly: co-IP; S. pombe cell extracts; immunoprecipitation with anti-Myc 9E10 and protein G Sepharose; Western blot with anti-FLAG M2 and anti-Myc 9E10.

Results are given in words; binding and its absence hold for the method and conditions named. For part of these data: Binding seen in cells or lysates may run through a third protein. Some binding calls cover weakened binding; strength is not graded here. Tags and fused reporters may be left off the sequences shown.

B1: Swi3-AD (protein, UniProt O14350 1-181)
chain: T4 sequence
For B1, in test [1], the binding result is reported as “binds”.

B2: Vid21 expressed as epitope-tagged protein in S. pombe cells (protein, UniProt O59773 1-994)
chain: T5 sequence
On to B2, for which the binding result in test [2] is “no binding”.

B3: Vid21_(593-985) fused to Gal4 activation domain (domain or fragment, UniProt O59773 593-985)
chain: FSDDIFVTTNSEQIQNCVLNVPMYGPPTENNEYCEEISEKYPITPVSRFAYAKTKLKSTCAKASRKRLFNQLELSPPESFMEKKARSDENQLDGNKIKDDNQKLSSVGTFSVRPPYPPSSKDIRPEAPWLPEEDELLLLLLRRYSFNWEFVASRLTPPGLYIPLAEKRTAWDCFERWIQVDPRAANVQLTGSHARLAQQKLDESLRHSDKVSQHLSLRDEGTPNHLIKHNSYFLLPTVSRHYRPITIFEAIRKILKKREFAKKPTMTKRAIAPSAASTEKLPPVPSPLELSRLKSEREAQIQQIQAQRNFAQLQSQNRALRPQNAAVAAGAQQHNQQLAAFQAVAASQNSSNNSSAGVSPIAGRMVPRLQPYAVSSSLKLTPEQIHQLQQRKQ
As for B3, in test [1], the binding result was “binds”.

B4: His6-Vid21_(593-985) (domain or fragment, UniProt O59773 593-985)
chain: B3 chain
Regarding B4, the binding result with GST-Swi1 (S. pombe) and in the test with GST-Swi3 (S. pombe) was “binds” each time.

B5: Mst1-5FLAG (protein, UniProt O94446 1-463)
chain: MSNDVDDESKIETKSYEAKDIVYKSKVFAFKDGEYRKAEILMIQKRTRGVVYYVHYNDYNKRLDEWITIDNIDLSKGIEYPPPEKPKKAHGKGKSSKRPKAVDRRRSITAPSKTEPSTPSTEKPEPSTPSGESDHGSNAGNESLPLLEEDHKPESLSKEQEVERLRFSGSMVQNPHEIARIRNINKICIGDHEIEPWYFSPYPKEFSEVDIVYICSFCFCYYGSERQFQRHREKCTLQHPPGNEIYRDDYISFFEIDGRKQRTWCRNICLLSKLFLDHKMLYYDVDPFLFYCMCRRDEYGCHLVGYFSKEKESSENYNLACILTLPQYQRHGYGKLLIQFSYELTKREHKHGSPEKPLSDLGLISYRAYWAEQIINLVLGMRTETTIDELANKTSMTTNDVLHTLQALNMLKYYKGQFIICISDGIEQQYERLKNKKRRRINGDLLADWQPPVFHPSQLRFGW
In the case of B5, in the test with Vid21-13Myc (S. pombe), the binding result was “binds”.
